This is one part of the list. At the low end of the ranking the order means little.
Each sequence was assayed on T1, GST-NbGlk1(82-244) (assay: protein-binding microarray). Conditions: NbGlk1 is a Golden2-like transcription factor of Nicotiana benthamiana; high values mean tight binding; most listed sequences are background and not binding sites; double strand, one strand shown.
T1 sequence: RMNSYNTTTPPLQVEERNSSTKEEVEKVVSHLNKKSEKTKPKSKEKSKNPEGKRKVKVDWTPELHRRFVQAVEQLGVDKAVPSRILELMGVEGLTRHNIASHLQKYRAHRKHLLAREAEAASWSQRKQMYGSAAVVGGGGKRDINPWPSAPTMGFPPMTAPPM
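Note: rank-based score ranging −0.5 to +0.5 with E above 0.45 taken as significant binding.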

Sequence | binding signal
ATGAGACG | -0.128 E-score
AACCTCGG | -0.166 E-score
ATAGAACA | -0.00121 E-score
ATCCACAC | 0.203 E-score
AAGGATTC | 0.374 E-score
AATAGAGT | -0.0137 E-score
AGTCCGGC | -0.322 E-score
AATGTCTC | 0.0102 E-score
ATACCGCA | 0.211 E-score
ATTCAGGA | 0.206 E-score
AGATTTCG | 0.486 E-score
AGTGCCTG | -0.217 E-score
ATGGTGCC | -0.267 E-score
ATCTAAGA | 0.26 E-score
AATATCGT | 0.322 E-score
AGAATTCA | 0.0984 E-score
ACACTTTA | 0.0811 E-score
AAACTATT | 0.108 E-score
CACGTGGG | -0.14 E-score
CACATTAA | -0.0433 E-score
ATTCCCGG | 0.283 E-score
ATAAATGA | 0.175 E-score
ACCGATAA | 0.124 E-score
AACCTGTC | -0.169 E-score

Sequence | binding signal
ACCGGACG | -0.304 E-score
ACAGCCCG | -0.27 E-score
ACAGCGGA | 0.0705 E-score
AATAGAAG | -0.105 E-score
ACGAAGAT | 0.31 E-score
ATACAGGG | -0.0974 E-score
AGTGCCCG | -0.25 E-score
AGCCTTAG | -0.214 E-score
CAAGGATC | 0.15 E-score
AGATGTCA | 0.0338 E-score
AATTGTTG | 0.0223 E-score
ACATAGGC | -0.204 E-score
ATTTCGGC | 0.283 E-score
AGCCTGTG | -0.113 E-score
AGTCGGGC | -0.224 E-score
ACGTCAAT | 0.0537 E-score
ACTCCGAT | 0.0323 E-score
AAAATGGT | -0.0779 E-score
AAGCCACT | -0.234 E-score
CAAGAGAA | 0.123 E-score
ATGTCGCA | 0.0249 E-score
AATTGGGG | 0.0599 E-score
CAGCGATC | 0.194 E-score
ATACCTTG | 0.0104 E-score

Sequence | binding signal
ACCTCGAC | -0.212 E-score
CAAACGTG | 0.0202 E-score
ACCAGACC | -0.237 E-score
ACGTTACC | -0.0411 E-score
ATGCTCTG | -0.0748 E-score
AATTGTCG | 0.0571 E-score
ATCACCAT | 0.123 E-score
AGCCTCCA | -0.25 E-score
AATACCCT | -0.0772 E-score
ACCATGAC | -0.159 E-score
AACTGTGC | -0.112 E-score
CAGCCCGG | -0.207 E-score
CACAGACC | -0.16 E-score
ATGAGCGC | -0.0257 E-score
CAGAGCAA | -0.0723 E-score
ACATGGTC | -0.294 E-score
AGCCATAG | -0.285 E-score
AGGTAAAG | -0.0423 E-score
ACCCTGCC | -0.148 E-score
AAAAATTT | 0.267 E-score
ATCCAAGC | 0.198 E-score
AATAATAC | 0.103 E-score
AACTCGAT | 0.0596 E-score
CAACAAGG | -0.0885 E-score

Sequence | binding signal
ACGTATCT | 0.318 E-score
AAGATGTC | -0.0083 E-score
ATGCTGAC | -0.0932 E-score
ATGTCGCG | -0.0314 E-score
AAATAAGT | 0.034 E-score
ACAAATCG | 0.297 E-score
AGATGTTG | 0.111 E-score
CAAACACG | -0.0195 E-score
ACCATGGC | -0.295 E-score
AGCCGGGA | -0.0936 E-score
ACGACTCC | -0.0391 E-score
AACGAAGC | -0.0104 E-score
AGGGGCGA | -0.151 E-score
ACTCCCAG | -0.239 E-score
AGTTCTAG | -0.0357 E-score
AGGTCTGG | -0.0443 E-score
ACCGTCAG | -0.124 E-score
ACTGCGAT | 0.208 E-score
AATTCCTC | 0.0722 E-score
ACATCGCA | -0.0776 E-score
ACACACCA | -0.105 E-score
CAACACGC | -0.208 E-score

From article PMC5836133
